The source gives no read counts; variants with many changes may rest on few reads.
B1: OR4K15 (parent)
chain: GUUAACGGUCAUAGGCCAUGGAAACUAGGAGCACCAUUUCGCUGCCAGUGAAGAAAUGAACAAAGAAAAUCUGGGCCAGGCAGGCAUCAAAAGAAAUAGUCUUGCGCUCAACCAGAAAGUCUGUAAUCAUUUUAAGGGUA

Variants of: B1
Experiment: self-cleavage, relative activity (ratio to wild type); higher = more cleavage; in vitro, sequencing; the parent is a self-cleaving ribozyme
Variant A89U A117G U122A has a self-cleavage of 2.03. Work on U87C A91G U132C yielded a self-cleavage of 0.69. A90U A91G U102C U120C U139C showed a self-cleavage of 1.02. In the case of U102C U120C A126G, the self-cleavage is reported as 0.84. A82U U97C A98G C105A showed a self-cleavage of 0. In the case of U97G A110G U130C, the self-cleavage is reported as 0.07. With C85U A94G U103C the self-cleavage was 0.23. Variant A91G C105U A111G has a self-cleavage of 0. In the case of A90G A126G U132G, the self-cleavage is reported as 0.44. Work on A92U U108C U120C A129G yielded a self-cleavage of 0. With A91G A96G A110U the self-cleavage was 0.94. A96U U97C A98U showed a self-cleavage of 0.23. A86U U100A U108C G119A showed a self-cleavage of 0. U108C U130C U139C showed a self-cleavage of 0. In the case of A89G U97A A114C, the self-cleavage is reported as 0. With A118G U120C G137A the self-cleavage was 0.62. Work on A82U G104U U108C A111G yielded a self-cleavage of 0. For A86G A89C U124C, the self-cleavage was 0.56. With A82U U122G U130C the self-cleavage was 0.08. In the case of U97C U102C U120G, the self-cleavage is reported as 1.93. U127C A129G A140C showed a self-cleavage of 0.26. With A96G U102C U122A the self-cleavage was 2.73. Work on A94G U103C U108C yielded a self-cleavage of 0.03. With A110U U122A C128U A129G the self-cleavage was 0.82. In the case of A116G A118G U122C, the self-cleavage is reported as 0.36. A96G A118G U122C gave a self-cleavage of 0.8. U103C G106A A118U A126G gave a self-cleavage of 0. For A89G A92G U100C A114U U132C, the self-cleavage was 0.02. Work on A89G A95C C109U yielded a self-cleavage of 0.64. Variant A86G A95G U100A A110G U133C has a self-cleavage of 0.08. A90G A96G A110G U122A showed a self-cleavage of 0.1. A114G A129C U131C gave a self-cleavage of 0.15. U103C A111G A114G gave a self-cleavage of 0.01. U97C A111U A134G showed a self-cleavage of 0.06. In the case of A89U A134G U139C, the self-cleavage is reported as 0.61. Variant A91U A111G U131C has a self-cleavage of 0.01. With U87C A116U A118G the self-cleavage was 0.03. Variant A118U U122C U127C has a self-cleavage of 0.33. Variant U100C U103C A114U has a self-cleavage of 0.1. In the case of U103C A116G A129U, the self-cleavage is reported as 0.47. Variant U103C U108C A134G has a self-cleavage of 0.01. In the case of A91G U127C U130A, the self-cleavage is reported as 0.58. For A98G A111U U120C, the self-cleavage was 0. In the case of U100C U108C A135U, the self-cleavage is reported as 0. Work on C105A U108A A114G yielded a self-cleavage of 0.04. In the case of U102C A118U U132C, the self-cleavage is reported as 0.59. G84A A95G U108C A126G showed a self-cleavage of 0. A89G A98G A111U U120C U122C gave a self-cleavage of 0.01. For U102C U120G U130C, the self-cleavage was 2.27. A86U A98G U131C showed a self-cleavage of 0.4. With A86U A95G U130A the self-cleavage was 2.2. Work on A82G A110G A111G U124C yielded a self-cleavage of 0.02. A82U A89G A114G showed a self-cleavage of 0.06. A90G A91G A94G gave a self-cleavage of 0.39. For A94G A117G U122C, the self-cleavage was 1.59. In the case of A94U U122C U131C, the self-cleavage is reported as 0.84. Variant A91G C109U U124C has a self-cleavage of 0.02. Variant A89G U124C U132C has a self-cleavage of 0.83. For U108C A114G A125G, the self-cleavage was 0. In the case of A94G U102C U131C, the self-cleavage is reported as 2.07. Work on A94U A110U A111G yielded a self-cleavage of 0.01. Variant A86U U87C A91G A94G has a self-cleavage of 1.41. For A91G C121A A135U, the self-cleavage was 2.47. Work on A89G A92G A114G yielded a self-cleavage of 0.2. For A89G A95G U132A, the self-cleavage was 2.18. For U100C U102C U132C A140G, the self-cleavage was 0.86. With U97C U127C A135U the self-cleavage was 0.26. With A94G U97C A117G the self-cleavage was 1.44. A89U U102C U124A showed a self-cleavage of 1.63. For A94U U100A A129U, the self-cleavage was 0.08. A98G U108C U131C gave a self-cleavage of 0.01. Variant A86G A94G A134G has a self-cleavage of 2.15. With U87C U102C U133A the self-cleavage was 2.89. With U87C A110G C121U the self-cleavage was 0.29. A89U C107U A114G gave a self-cleavage of 0.01. Variant A114G A118G U130C U131C has a self-cleavage of 0. With A86G A91U U97A the self-cleavage was 1.75. Work on A110G A117G U131C yielded a self-cleavage of 0.11. A86G A96G U108A gave a self-cleavage of 0.02. G106U G123A U127C showed a self-cleavage of 0. In the case of A91G U132C A140G, the self-cleavage is reported as 0.97. A96G U103C A126G U127A gave a self-cleavage of 0.63. U87C A92U U100C showed a self-cleavage of 2.08. With A89U A94U U132C the self-cleavage was 1.83. Work on U87C A94G U127C yielded a self-cleavage of 1.02. With A82G A94G U108A G137A the self-cleavage was 0.05. A90U C105G A126G gave a self-cleavage of 0.03. With A90G A96G A135U the self-cleavage was 1.5. With U102C U131C U139A the self-cleavage was 0.94. Work on A117G A126G U139C yielded a self-cleavage of 1.16. A89G A116U U133C showed a self-cleavage of 0.66. U100C A111G U131C showed a self-cleavage of 0.01. A82G U102C A114U A126G showed a self-cleavage of 0.03. Work on U100C U103C A110G yielded a self-cleavage of 0.11. C105A A116G U120A U130A showed a self-cleavage of 0.02. Work on U100C U103C A110G A117G G123A yielded a self-cleavage of 0.1. A111G U122A U131G showed a self-cleavage of 0.01. In the case of A125G A129G U130C, the self-cleavage is reported as 0.2. A86G A90G A98G U102C C113A A118G gave a self-cleavage of 0. C109U U122C U127C showed a self-cleavage of 0.29. A89G A116G U127C A140G gave a self-cleavage of 0.28. For A96G U97C A117G, the self-cleavage was 1.06. In the case of A96G A117G A126G, the self-cleavage is reported as 2.09. For G84C A95G U120C U122C, the self-cleavage was 0.34. Variant U124C U131A G137C has a self-cleavage of 1.2. Work on U87C U103C U132C yielded a self-cleavage of 0.64. With A117G A126G U132C the self-cleavage was 2.02. For U87C A110G A140G, the self-cleavage was 0.1. For U100C A110G A126G, the self-cleavage was 0.11. A118G U122C A140G gave a self-cleavage of 0.4. For A96G U122C U130C U131C, the self-cleavage was 0.74. For A94G A95U A134G, the self-cleavage was 1.44. A86G A96G U103C gave a self-cleavage of 1.41. Variant A91G U103C U120C has a self-cleavage of 0.13. For A92G A110C A118G A126G, the self-cleavage was 0.03. Work on U87C U130A U139C yielded a self-cleavage of 0.35. In the case of A96G U130C U132C, the self-cleavage is reported as 2.23. For U103C A118G U139C, the self-cleavage was 0.72. Variant A94G A116G U127A has a self-cleavage of 0.75. Variant A89G U102C U108C has a self-cleavage of 0.01. For A89G U108A A140G, the self-cleavage was 0.02. Work on A91G U100C U127C yielded a self-cleavage of 1.31. Variant U100C A116G U131C has a self-cleavage of 1.37. With A90G A92G U102C the self-cleavage was 1.83. Variant A91G A96G C101U U108A has a self-cleavage of 0.01. In the case of A92U A111U A114G, the self-cleavage is reported as 0.05. In the case of A82G A98G U103C, the self-cleavage is reported as 1.39. U102C A116G U122C showed a self-cleavage of 0.42. Work on A82G U87C A94C U102C A118C yielded a self-cleavage of 0.32. In the case of U102C A114U U132C A135G, the self-cleavage is reported as 0.06. Variant C88A A98G U103C U122C has a self-cleavage of 0.02. Variant A86G A95G U132C has a self-cleavage of 1.9. U87C A94G A111G gave a self-cleavage of 0.02. A86G U87C A129U gave a self-cleavage of 0.36. In the case of A114G U131C U132G, the self-cleavage is reported as 0.11. In the case of A110U A118G C121A, the self-cleavage is reported as 1.19. With A111G A116G A125U the self-cleavage was 0.01. In the case of U108C A117G A126G, the self-cleavage is reported as 0.01. In the case of A82G U87C A116G A129G U130C, the self-cleavage is reported as 0.04. C85A A114G A126G C128A showed a self-cleavage of 0.19. With A90G A91G U122C the self-cleavage was 0.84. A95G U133C G136A gave a self-cleavage of 2.49. With U87A A118G U130G the self-cleavage was 0.3. In the case of A82G C121U G123A, the self-cleavage is reported as 0.64. Variant A92U A118U U122C has a self-cleavage of 1.03. Work on U87C C101U A118G yielded a self-cleavage of 0.06. For A82G C121A U132C, the self-cleavage was 0.66. For U87C A89U A92G A110G, the self-cleavage was 0.1. Work on A86U U87C A91G A140U yielded a self-cleavage of 0.22. Work on U87C A90G A96U yielded a self-cleavage of 0.73. U124C U132C A134G gave a self-cleavage of 0.59. A118G U130C U132C gave a self-cleavage of 0.5. Work on A90G A92U A98U yielded a self-cleavage of 1.18. With A86C A96C A110G the self-cleavage was 0.03. For A90G A95G A98G A116G, the self-cleavage was 0.5. For U87C G106U U132C, the self-cleavage was 0.02.

Source: the RNAGym collection of RNA variant scans (doi:10.7554/elife.90254)
